# Results from PubChem BioAssay AID1345082 (National Center for Advancing Translational Sciences (NCATS), 2018).
# Screen size: about 94,000 compounds; about 4,000 (4.3%) were called active. Inconclusive means that the source gave no clear call. Such entries were picked first, then a sample of the others. Calls come from the whole dose curve; as a rule, active = well fitted inhibition curve with a large enough effect; inconclusive = small, poorly fitted or top-dose-only effect; inactive = no such curve, though single readings can be large or run the other way. Potencies beside an inconclusive call are fits to weak or partial responses and may not hold up.
# Test: Cytotoxic Profiling in NIH 3T3 Cell Line of Diverse Libraries Using Quantitative High-Throughput Screening; note: nearly all actives have a fitted effect of over 55% in size
# Details: NIH 3T3 viability, CellTiter-Glo ATP luminescence, 48-72 h; series mostly up to 96.7 µM
# How it was run: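 NIH 3T3 cells at 400 cells/well received 23 nL of compound by pintool and were incubated 48 or 72 h at 37 °C. Viability was read as ATP-coupled CellTiter-Glo luminescence.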
# Potency is the fitted concentration of half-maximal effect; tags give direction and shape of the fitted curve.
row,SMILES,Potency
1,O=C(NCc1ccc2c(c1)OCO2)C1CCN(C(=O)c2ccc(-c3cccs3)cc2)CC1,"inconclusive: 28.2 µM [inhibitor, partial curve, poor fit]"
2,COC[C@@H]1[C@H](C(=O)N2CCCN(C)CC2)CCCN1Cc1ccccc1,inactive
3,CC(C)C(=O)N1CCC(Oc2cnc3c(ccn3-c3cncnc3)c2)CC1,"inconclusive: 100 µM [inhibitor, partial curve, poor fit]"
4,O=C(Nc1cccc(C(F)(F)F)c1)N[C@H]1[C@H](O)[C@@H](Sc2ccccc2)[C@@H]2OC[C@H]1O2,"inconclusive: 50.1 µM [inhibitor, partial curve, poor fit]"
5,O=C(CCc1cccnc1)N1CCc2c(n(CCOc3ccccc3)n(-c3ccccc3)c2=O)C1,"inconclusive: 39.8 µM [inhibitor, partial curve, poor fit]"
6,CN1CC(=O)N(C2CCCCC2)Cc2c(NCCc3ccccc3)ncnc21,"inconclusive: 50.1 µM [inhibitor, partial curve, poor fit]"
7,COc1cccc(-c2ccc(CN)cc2)c1,"inconclusive: 112 µM [inhibitor, single point]"
8,Cc1ncc(C(=O)NCc2ccc3[nH]c(-c4ccccc4F)c(C)c3c2)c(C)n1,"inconclusive: 12.6 µM [inhibitor, full curve, poor fit]"
9,Cc1ccccc1CN1CCC2(CC1)OC(=O)N(Cc1ccc(O)cc1)C2(C)c1ccccc1 (configuration not stated),active: 31.6 µM
10,Cn1ncc2c(C(=O)NCc3ccc4c(c3)OCO4)cc(-c3ccc(Cl)cc3)nc21,inactive
11,CC(=O)N1CCC(Cc2ccc(CN(C(=O)CCc3ccccc3)C3CC3)cc2)CC1,"inconclusive: 7.08 µM [inhibitor, full curve, poor fit]"
12,Cc1ccc(-c2noc([C@@H]3CCCN3C(=O)c3ccc(C(C)C)cc3)n2)cc1,"inconclusive: 50.1 µM [inhibitor, partial curve, poor fit]"
13,O=S(=O)(c1ccccc1)N1CCC(CCc2nc(C3CCOCC3)no2)CC1,"inconclusive: 50.1 µM [inhibitor, partial curve, poor fit]"
14,COCCN[C@@H]1C[C@@H]2c3[nH]c4ccccc4c3C[C@@H](C(=O)OC)N2[C@H](c2ccc(Cl)c(F)c2)C1,active: 14.1 µM
15,COc1ccc(-c2noc(Nc3cc(C)cc(C)c3)n2)cc1,"inconclusive: 50.1 µM [inhibitor, partial curve, poor fit]"
16,O=C(Cc1cccc(Cl)c1)NC1CCN(Cc2cccc(-c3ccc(F)c(F)c3)c2)CC1,active: 15.8 µM
17,CN(C(=O)Cc1cccc(Cl)c1)C1CCCc2ccccc21 (configuration not stated),"inconclusive: 89.1 µM [inhibitor, partial curve, poor fit]"
18,Cc1ncnc(N2CCC3(CC2)CC(=O)N(CCCc2ccccc2)C3)c1C,"inconclusive: 8.91 µM [inhibitor, full curve]"
19,O=C(c1ccc(Cn2ccn3nc4c(c3c2=O)CCCC4)cc1)N1CCN(c2ccccn2)CC1,"inconclusive: 44.7 µM [inhibitor, partial curve, poor fit]"

row,SMILES,Potency
1,Cc1nn(-c2ccccc2)c2c1C(C1CC1)N(C1CCN(C(=O)Cc3ccc(F)cc3)C1)C2=O (configuration not stated),"inconclusive: 28.2 µM [inhibitor, full curve, poor fit]"
2,CC(C)NC(=O)c1ccnc(-c2cc(NC3CCCC3)nc3[nH]ccc23)c1,"inconclusive: 50.1 µM [inhibitor, partial curve]"
3,O=C(c1cn(CC2CCCO2)nn1)N1CCN(c2cccc(C(F)(F)F)c2)CC1 (configuration not stated),"inconclusive: 22.4 µM [inhibitor, partial curve, poor fit]"
4,CCOc1ccccc1C(=O)N1CCCC2(C1)NC(=O)N(Cc1ccc(Cl)cc1)C2=O (configuration not stated),"inconclusive: 50.1 µM [inhibitor, single point]"
5,CC(C)CNC(=O)c1ccc2nnc(-c3cc(C(F)(F)F)cc(C(F)(F)F)c3)n2c1,"inconclusive: 44.7 µM [inhibitor, partial curve, poor fit]"
6,Cc1ccc(S(=O)(=O)N(C)Cc2ccccc2C(F)(F)F)cc1,"inconclusive: 56.2 µM [inhibitor, partial curve, poor fit]"
7,O=C(c1cccc2[nH]ccc12)N1CCCC(n2cc(-c3nc(C4CC4)no3)nn2)C1 (configuration not stated),"inconclusive: 39.8 µM [inhibitor, partial curve, poor fit]"
8,O=C(Cc1c[nH]c2ccccc12)N1CCC(CCOc2ccccc2F)C1 (configuration not stated),"inconclusive: 44.7 µM [inhibitor, partial curve, poor fit]"
9,CC(C)(C)c1cc(C(=O)NCc2cccnc2)nn2cccc12,"inconclusive: 39.8 µM [inhibitor, partial curve, poor fit]"
10,COc1ccccc1-c1nnc([C@H]2CCN(Cc3ccccc3O)C2)o1,"inconclusive: 50.1 µM [inhibitor, partial curve, poor fit]"
11,O=C(C1CCCN1C(=O)c1cccc(Cl)c1)N1CCC(N2Cc3cccn3C2=O)CC1 (configuration not stated),"inconclusive: 44.7 µM [inhibitor, partial curve, poor fit]"
12,O=C(NC1CC1)c1ccc2oc(-c3ccncc3)nc2c1,"inconclusive: 70.8 µM [inhibitor, partial curve, poor fit]"
13,O=c1c2nc(-c3cccc(O)c3)ccc2ncn1C1CC1,active: 63.1 µM
14,O=C(Cc1cccc(F)c1)NC1CCN(c2cc(C(F)(F)F)ncn2)CC1,"inconclusive: 39.8 µM [inhibitor, partial curve]"
15,Cc1ccccc1C(=O)N1CCc2[nH]nc(C(=O)NCCCc3ccccc3)c2C1,"inconclusive: 22.4 µM [inhibitor, partial curve]"
16,Cc1nnc2ccc(N3CCC(NC(=O)c4ccc(F)cc4)CC3)nn12,inactive
17,CCc1nc2c(c(-c3ccc(OC)cc3)n1)CCN(Cc1cc(C)on1)CC2,active: 20 µM
18,O=C(CCC[C@@H]1[C@H]2CCCN3CCC[C@@H](CN1Cc1ccccc1)[C@@H]23)Nc1cccnc1,"inconclusive: 63.1 µM [inhibitor, single point]"
